In all, about 45,000 compounds went through this assay and about 65 (0.1%) were called active. Calls come from the whole dose curve; as a rule, active = well fitted activation curve with a large enough effect; inconclusive = small, poorly fitted or top-dose-only effect; inactive = no such curve, though single readings can be large or run the other way. This is one part of the list.
Target: Galactocerebrosidase (Homo sapiens) (UniProt P54803)
Experiment: A Novel Cell-Based Assay to Identify Small Molecules for B -Galactocerebrosidase; note: 0% is about no effect; nearly all actives have a fitted effect of over 65% in size
Details: 145M-Twi-hGALC-G270D cells (Twitcher mouse brain line with human GALC G270D), HMU-beta-Gal fluorescence, 48 h; series mostly up to 57.5 µM; activation: at the top concentration
Outline: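 Fluorogenic HMU-b-Gal hydrolysis (0.1 mM final, pH 5.2 citrate-phosphate with 1 mg/mL sodium taurocholate; carbonate stop buffer) measures mutant GALC activity after compound treatment of live 145M-Twi Twitcher brain cells stably carrying human GALC-G270D, with wild-type GALC line alongside; activation sought.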

Chain of UniProt P54803 (P54803 whole entry, looked up): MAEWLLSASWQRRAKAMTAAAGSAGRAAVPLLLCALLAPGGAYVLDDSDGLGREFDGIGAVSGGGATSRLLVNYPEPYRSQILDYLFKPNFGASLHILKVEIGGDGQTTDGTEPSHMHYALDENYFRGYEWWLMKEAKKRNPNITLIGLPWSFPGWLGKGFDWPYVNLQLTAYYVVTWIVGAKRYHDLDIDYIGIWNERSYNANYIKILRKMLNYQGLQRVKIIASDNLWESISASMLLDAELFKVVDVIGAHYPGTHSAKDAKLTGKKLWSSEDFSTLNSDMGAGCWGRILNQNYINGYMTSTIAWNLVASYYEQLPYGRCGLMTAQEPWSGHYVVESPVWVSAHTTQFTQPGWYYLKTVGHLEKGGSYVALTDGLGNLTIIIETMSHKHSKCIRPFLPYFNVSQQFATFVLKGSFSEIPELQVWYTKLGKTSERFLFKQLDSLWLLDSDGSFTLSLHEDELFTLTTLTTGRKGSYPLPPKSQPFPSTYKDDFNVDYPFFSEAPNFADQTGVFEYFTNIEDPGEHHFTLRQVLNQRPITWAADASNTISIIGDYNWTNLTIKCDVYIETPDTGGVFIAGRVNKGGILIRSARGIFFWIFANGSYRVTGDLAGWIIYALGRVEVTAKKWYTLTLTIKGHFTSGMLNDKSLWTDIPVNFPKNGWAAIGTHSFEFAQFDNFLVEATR

activation, inactive:
Oc1cccc2[nH]ccc12 -8.26%
CCN1CCN(c2ncc3c(n2)CCN(Cc2ccc(C)s2)C3)CC1 -12.5%
COc1ccc(Br)cc1CNC(=O)c1cc2c(=O)n(C)c3ccccc3c2s1 -15%
Cc1cccc(CCNC(=O)c2nc(-c3ccc(Cl)cc3)n3c2CCCCC3)c1 -5.01%
Fc1ccc(C(c2ccc(F)cc2)N2CCNCC2)cc1 -9.47%
Cc1ccc(S(=O)(=O)c2cn(CC(=O)Nc3ccccc3)c3cc4c(cc3c2=O)OCO4)cc1 2.78%
Cc1ccc(-c2nc(CS(=O)CC(=O)O)c(C)o2)cc1 (configuration not stated) -3.76%
Nc1nonc1-c1nc2ccccc2n1CC(=O)Nc1ccc(F)cc1 -6.6%
CC(=O)c1cc(-c2ccccc2)n(CC(=O)Nc2ccc(C)cc2C)c1C 0.528%
CCc1ccc(Nc2nc3ccccc3c3nnc(C)n23)cc1 -10.3%
Cc1cccc(N2CCN(C(=O)c3ccc4c(c3)CCN4S(=O)(=O)c3ccccc3)CC2)c1C -10.7%
CCOc1ccccc1NC(=O)NC(CC)c1c(-n2cccc2)sc2c1CCN(C)C2 (configuration not stated) -11.4%
CCOC(=O)c1cc(OC(=O)c2cc(Cl)ccc2OC)n(-c2ccccc2)n1 -8.46%
CCc1ccc(S(=O)(=O)c2nnn3c2nc(NCCC(C)C)c2cc(Cl)ccc23)cc1 -15%
CCc1ccccc1NC(=O)CSc1nccn1C -7.61%
CCOc1ccc(NS(=O)(=O)c2ccc3[nH]cc(C(=O)NCCc4ccccc4)c(=O)c3c2)cc1 20.4%
COc1ccccc1Nc1ncnc2c1nc1n2CCCCC1 -9.43%
Cn1c(SCC(=O)Nc2ccccc2F)nc2c([nH]c3ccccc32)c1=O 2.21%
COc1ccc2c(c1)c(CC(=O)Nc1cc(C)c(OC)c(C)c1)c(C)n2C(=O)c1ccc(Cl)cc1 -18.1%
CC(=O)c1ccc(OC(=O)c2c(-c3ccccc3Cl)noc2C)cc1 -8.41%
CCCN(CCC)S(=O)(=O)c1ccc(C(=O)N2CCn3c4c(c5cc(C)ccc53)CCCC42)cc1 (configuration not stated) -9.26%
Cn1nc(C(=O)Nc2cccc(C(F)(F)F)c2)c2c1-c1ccccc1S(=O)(=O)C2 -13.1%
O=C(COc1ccc(Cl)cc1Cl)Nc1ccc(C(=O)OC2CCCCC2)cc1 -2.55%
COc1ccc(NC(=O)c2ccco2)cc1NC(=O)c1ccc(OC(C)C)cc1 -6.33%
Cc1cc(C)cc(OC(C)C(=O)Nc2nc3c(s2)CCCC3)c1 (configuration not stated) -28.3%
COc1ccc(CCNC(=O)Cn2nc(-c3ccc(Cl)cc3)ccc2=O)cc1OC 7.43%
CCOc1ccc(Nc2ncnc3onc(-c4ccc(Cl)cc4)c23)cc1 -6.03%
COc1cn(CC(=O)Nc2cccc(C)c2)c(CN2CCCCC2)cc1=O -5.11%
CCOC(=O)c1ccc(NC(=O)C2CCCN(c3cnccn3)C2)cc1 (configuration not stated) -8.6%
COc1ccc(Oc2ncnc3c2oc2ccccc23)cc1 -11%
CCCC(C(=O)Nc1cc(C)c(Cl)cc1OC)N1Cc2ccccc2C1=O (configuration not stated) -15.8%
COc1cc(NC(=O)Cn2cc(S(=O)(=O)N3CCC(C)CC3)c3ccccc3c2=O)cc(OC)c1OC -17.8%
COc1cccc(/C=C(\C#N)c2nc3ccccc3c(=O)[nH]2)c1OC -3.97%
CCOC(=O)C1=C(CNCc2ccc(Cl)cc2)NC(=O)NC1c1ccccc1 (configuration not stated) -35.1%
CC(=O)N1c2ccccc2CC1C(=O)N1CCN(c2ccccc2F)CC1 (configuration not stated) -8.37%
CCOC(=O)c1cc(-c2ccc(OC)cc2)n(CCC(=O)NCCc2ccc(OCC)c(OCC)c2)c1C -20.4%
CCn1cc(/C=C(\NC(=O)c2ccc(OC)c(OC)c2)C(=O)NCCCn2ccnc2)c2ccccc21 -12.9%
Cc1ccc(NC(=O)N2CCC(CN3CCCCC3)CC2)c(Cl)c1 -9.74%
Cc1ccc(OCC(=O)Nc2ccc(C(=O)OCc3cc(=O)n4ccsc4n3)cc2)cc1C -23.7%
CC(=O)c1ccc(N2CCN(S(=O)(=O)c3ccc(-c4cnc(C5CC5)o4)cc3)CC2)cc1 -11.4%
Cc1nc2sccn2c(=O)c1S(=O)(=O)Nc1cccc(Cl)c1C -8.93%
CN(C)c1ccc(CNC(=O)C2CCN(C(=O)c3ccc(-n4ccc5ccccc54)s3)CC2)cc1 -18.3%
COc1cc([N+](=O)[O-])ccc1NC(=O)N1CCC2(CC1)Nc1cc(F)ccc1-n1cccc12 -10.3%
Cc1ccc(N2CCN(C(=O)CCS(=O)(=O)c3cc4c(cc3Cl)NC(=O)CO4)CC2)c(C)c1 -5.81%
CC1CCN(c2nc3c(S(=O)(=O)c4cccc(Cl)c4)nnn3c3ccsc23)CC1 -10.9%
CC(C)(C)OC(=O)N1CCC(c2c(C(=O)N3CCN(c4ncccn4)CC3)cnn2-c2ccc(F)cc2)CC1 -6.31%
CCOC(=O)c1c(-c2ccc(OC)cc2)oc2ccc(OCc3ccc(F)cc3F)cc12 -13.6%
Cc1ccccc1Nc1nnc(-c2ccc(C)c(S(=O)(=O)NCC3CCCO3)c2)c2ccccc12 (configuration not stated) -14.2%
CCCCNc1nc2c(-c3cccc(Br)c3)nnn2c2ccccc12 -14.8%
CCOC(=O)c1ccc(NC(=O)C(CC)Sc2nncn3c2cc2oc(C)cc23)cc1 (configuration not stated) -12.7%
COc1ccc(C2=Nc3ccccc3N(CC(=O)Nc3cccc(C(C)=O)c3)C(=O)C2)cc1 6.19%
COc1ccc(CNS(=O)(=O)c2csc(C(N)=O)c2)cc1OC -10.1%
Cc1cn2c(=O)cc(COC(=O)c3ccc(NC(=O)c4ccc(C(C)(C)C)cc4)cc3)nc2s1 2.64%
O=C1Nc2c(c(=O)[nH]c(=O)n2-c2ccc(F)cc2)C1(NS(=O)(=O)c1ccc(Cl)cc1)C(F)(F)F (configuration not stated) -5.94%
Cn1nnnc1SCCCNCc1cc(Cl)ccc1OCc1ccccc1 -7.28%
COc1ccc(OCCCn2c(C)nc3cc(C)c(C)cc32)cc1 -10.3%
CCC1=C(c2ccc(C)cc2)S(=O)(=O)N=C1N1CCC(C(=O)NCCc2cccc(OC)c2)CC1 -9.83%
COc1cccc2c1cc1c(=O)n(CC(=O)NCCCN3CCN(C)CC3)nc(C)n12 -14.9%
Cc1cn2c(=O)c(S(=O)(=O)NCCc3ccc(Cl)cc3)c(C)nc2s1 -14.1%
CCc1ccc(NC(=O)C2CCCN2S(=O)(=O)c2cccc3nsnc23)cc1 (configuration not stated) -15.2%
COc1cc(C(=O)Nc2nnc(CC(C)(C)C)s2)cc(OC)c1OC -6.15%
CC(=O)N1CCc2c(sc3c2c(=O)n(-c2ccccc2)c(=O)n3CC(=O)c2ccc(F)cc2)C1 -18.6%

From PubChem BioAssay AID1159614 (National Center for Advancing Translational Sciences (NCATS), 2016)
